Source: the RNAGym collection of RNA variant scans (doi:10.7554/elife.90254)
The source gives no read counts; variants with many changes may rest on few reads.

B1: LINE1-mini (parent)
chain: GGCAGAGCUCAACACAGCGUGGCAAAGUGGCUGUGGCUAGACUGCC

Variants of: B1
Experiment: self-cleavage, relative activity (ratio to wild type); higher = more cleavage; in vitro, sequencing; the parent is a self-cleaving ribozyme

Variant | self-cleavage
GGCAGAGCUUAACCCAGCGUGGAAAAGUGGCUAUGGCUAGAAUGCC [C10U A14C C23A G33A C42A] | 0.02
AACAGAGCUCGACAAAGCGUGGCAAAGUGGCUGUGGCUAGACUGCC [G1A G2A A11G C15A] | 0.04
GCCAGAGCUCAACCCAGCGUGGCAAAGUGGCUGUGGCUAGAGUGCC [G2C A14C C42G] | 0.01
GGCAGAACUCAAUACAGCGUGGCAAGGUGGCUGUGGCUAGACUGCC [G7A C13U A26G] | 1.03
GGCAGAGCUCAAGACAGCGCGUCAAAGUGGCUGUGGGUACACUGCC [C13G U20C G22U C37G G40C] | 0.02
GGCAGAGCUCACCAUAGCGUGGCAAAGUGGCGGUGGCUAGUCUGCC [A12C C15U U32G A41U] | 0
GGCCGAGAUCAGCACAGCGUGGCAAAGUGGCUGUGGCUAGACUGCC [A4C C8A A12G] | 0.27
GGCAGAGCUUAACACAGCGUGGCAAAGUGGCUGUGACAAGCCUGCC [C10U G36A U38A A41C] | 0.03
AGCAGAGCUCAACCCAGCGUGGCAAAGUGGCUGUGGCUUGACUGCC [G1A A14C A39U] | 0.03
GGCAGGGCUCAACACUGCGUGGCAAAGUGGCUGUGGCUAGACCGCC [A6G A16U U43C] | 0.01
GGCAGGGCCCAACACAGCGUGGCAAAGUGGCUGUGACUAGACUGCC [A6G U9C G36A] | 0.47
UGCAGAGCUCAACACAGCGUGGCAAAGUGCCUCUGGCUAGACUGCC [G1U G30C G33C] | 0
GGCGCAGCUCAACACAGCGAGGCAAAGUGGCUGUGGCUAGACUGCC [A4G G5C U20A] | 0.15
GGCAGAGCUCGACACAGGGUGGCGAAGUGGCCGUGACUAGAGUGCC [A11G C18G A24G U32C G36A C42G] | 0
GGAAGAGCUCAACACAGCGUGGCAAAGUGACUGUGGCGAGACUGCC [C3A G30A U38G] | 0.14
GGCCUUGGUCAGCACAGCGUGGCAAAGUGGCUGUGGCUAGACUGCC [A4C G5U A6U C8G A12G] | 0.02
GGCAGAGCUCAAAACAGCGUGGCAAAGAGGCUGUGGCCAGACUGUC [C13A U28A U38C C45U] | 0.07
GGCAGAGCUUAUCACAGCGUGGCAAAGUGGCUGUGGCUAGACUGGC [C10U A12U C45G] | 0.02
GGCAGAGCUCAACACAGCGUGGCAAAGUCGAUUUGGCUAGACUGCC [G29C C31A G33U] | 0

Variant | self-cleavage
GGCAGAGCUCAACACAGCGUGCCAAAGCGGCUGUGGCUAGAGUACC [G22C U28C C42G G44A] | 0.01
GGCAGAGCUCAGCACAGCGUGGUACAGUGGCUGUGGCUAGACUGUC [A12G C23U A25C C45U] | 0.04
UACAGAGCUCCACACAGAGUGGCAAAGUUGCUGUGGCUAGACUGUA [G1U G2A A11C C18A G29U C45U C46A] | 0.01
CGCAGAGCUCAACACAGCUUGGAAAACUGGCUGUGGCUAGACUGCC [G1C G19U C23A G27C] | 0.09
GGAAGAGCUCAACACAGCAUGGGAAAGUGGCUGUGGCUAGACUACC [C3A G19A C23G G44A] | 0.5
UGCAGAGCUCAUCGCAGCGUGGCAAAGUGGCUGUGGCUAGACUGCC [G1U A12U A14G] | 0.04
GGAUGAGCCCAACACAGCGUGGUAAAGUGGCUGUGACUAGACUGGC [C3A A4U U9C C23U G36A C45G] | 0
GUCAGGGCCCAUCACAGCGUAGCAAAGUGGCUGUGGCUAGACUGCG [G2U A6G U9C A12U G21A C46G] | 0.01
GGCAGAGCUCAGCACAGCGUGGCAAAGUGGCUGUGGGUAGGCUGCC [A12G C37G A41G] | 0.03
GGCACAUCUCAACACUGCGUGGCAAAGCGGCUGUGGCUAGACUGCC [G5C G7U A16U U28C] | 0.4
GGUAGAGCUCAACACAGAGUGGCAAAGUGGCGGUGGCUAGACUGCC [C3U C18A U32G] | 0.02
GUCAGAGCUCAACACAUCGUGGCAAAGUGGUUGUGGGUAGACAGCC [G2U G17U C31U C37G U43A] | 0.07
GGCAGAGCUCAACACAGCGUGGCAAGUACGCUGUGGCUAGACUGCC [A26G G27U U28A G29C] | 0.32
AGCAGCGCUCAACACAGAGUGGCACAGUGGCUGUGGCUAGACUGCC [G1A A6C C18A A25C] | 0.03
GGCAGAGCUUUAAACAGCGUGGCGAAGUGGCUGUGGCUAGACUGCC [C10U A11U C13A A24G] | 0.04
GACAGAGCUCAACAUAGCGUGGCGAAGUGGCUGUGGCUAGACUGCC [G2A C15U A24G] | 0.3
AGCAGAGGUCAACACAGCGUACCAAAGUGGUUUUGGCUAGACUGCC [G1A C8G G21A G22C C31U G33U] | 0.15
GGCAGAGCUCCACACAGCGUGGCACAGUGGCUGUGGAUAGACUGCC [A11C A25C C37A] | 0.01
GGCAGAGUUCAACUUAGCGUGGCAAAGUGGAUGUGGCUAGACUGCC [C8U A14U C15U C31A] | 0.32

Variant | self-cleavage
GGCAGAGCUCAACACAGAGUGGCAAAGUGGCUGUUGCUAUACUGCC [C18A G35U G40U] | 0.01
GGCAUAGCUCAACACAGCGUGGCAAAGUGGCUGUGCCUACACUGCC [G5U G36C G40C] | 0.02
GGCAGAGCUGAACCCAUCGUGUCAAAGUGGCUGUGGCUAGACUGCU [C10G A14C G17U G22U C46U] | 0.02
GGAAGAAAUCAACACAGCGUGGCAAAGUGGCUGUGGCUAGACUGCC [C3A G7A C8A] | 0.5
GUCAGAGCUCAACACAGCGAGGCAUAGUAGCUGUGGCUAGAAUGCC [G2U U20A A25U G29A C42A] | 0.35
GACAGAGCUCAACACAGCGUGGCAAAGUUGGUGAGGCUAGACUGGC [G2A G29U C31G U34A C45G] | 0.11
GGCAGAGCUGUACACGGGGUGGCAAAGUGGCUGUGGCUAGACUGCC [C10G A11U A16G C18G] | 0.02
GGCCGUGAUCAACACAGCGUGGCAUAGUGGCUGUGGCUAGACUGCC [A4C A6U C8A A25U] | 2.92
GACAGAGCUCAACAGAGCGUGGCAAAGCGGCUGUGGCUAGACUGCG [G2A C15G U28C C46G] | 0
GGCAGAGCUCAACACAGCGUGGCGAAUUCGCUGUGGCUAGACUGCC [A24G G27U G29C] | 0.19
GGGAGAGCUCAACACAGCGUGUCAAAGUGGCUGUGGCUAGACAGCC [C3G G22U U43A] | 0.1
GUCAGAGCUCAACGCCGCGUGGCAAAAUGGCUGUGGCUAGACUGCC [G2U A14G A16C G27A] | 0.03
GGCAAAGCUCAACACAGCGUGGCACAGUGGCUUUGGCUAGACUGCC [G5A A25C G33U] | 0
GGCACAGCUCAACACAGGGUGGCAAAGUGUCUGCGGCUAGACUGCC [G5C C18G G30U U34C] | 0.02
GGAAGAGCGCCACACAGCGUGGCACAGUGGCUGUGGUGAGACUGCC [C3A U9G A11C A25C C37U U38G] | 0.02
GGCAGAGCUCAACACAGGGUGGCAAAGUGGCUGUGGAUAUACUGCC [C18G C37A G40U] | 0.06
GGCAGAGCUCAAGACAGCGUGGCAGAGUGGCUGUGGCUAUUCGGCC [C13G A25G G40U A41U U43G] | 0.09
GGCAGAGCUCAACACAGCGAGGGGAAGUGGCUGUGGCUAGACAGCC [U20A C23G A24G U43A] | 0.09
